In the supplement of paper PMC9446081 one finds relative growth data, which are given here for 62 compounds.

The campaign covered roughly 39,000 compounds. About 220 (0.56%) showed activity. The list shows a part of the results.
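Further: static incubation at 37 °C against the wild-type strain, values averaged over two biological replicates.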

The experiment has as its system Escherichia coli K-12 BW25113. Put plainly: relative growth (OD600 normalised to plate interquartile mean) (fraction); higher = less growth inhibition, active = 0.2 or less. As to conditions: 50 µM; LB; incubation time: overnight (16-24 h).
Turning to `COc1ccc(S(=O)(=O)Nc2cccc3c2O[C@@H](CN(C)Cc2ccc(Cl)c(Cl)c2)[C@H](C)CN([C@H](C)CO)C3=O)cc1`, the relative growth was inactive: 1.03.

Consider `C[C@H](CO)N1C[C@H](C)[C@H](CN(C)Cc2ccncc2)Oc2ccc(NC(=O)Cn3cnnn3)cc2C1=O`, for which the relative growth was inactive: 0.985.

For the compound `O=C(OCC(O)CO)c1ccccc1Nc1ccnc2cc(Cl)ccc12` (configuration not stated), the relative growth was inactive: 0.85.

For the compound `COc1cc(OC)cc(-c2ccc([C@H]3CC(=O)C[C@@H](c4ccccc4)C34C(=O)c3ccccc3C4=O)cc2)c1`, the relative growth is inactive: 1.02.

As for `Cn1c(=O)c2c(nc(N3CCOCC3)n2CCN)n(C)c1=O`, the relative growth was inactive: 1.02.

For the compound `C[C@H]1CN([C@@H](C)CO)C(=O)c2cccc(NS(C)(=O)=O)c2O[C@H]1CN(C)C(=O)Nc1ccc2c(c1)OCO2`, the relative growth was inactive: 0.994.

On to `C[C@@H](O)C#Cc1ccc2c(c1)O[C@H](CN(C)C(=O)Nc1ccccc1)[C@@H](C)CN([C@@H](C)CO)S2(=O)=O`, for which the relative growth was inactive: 0.974.

With `COC(=O)C1=CO[C@@H](O[C@@H]2O[C@H](CO)[C@@H](O)[C@H](O)[C@H]2O)[C@@H]2[C@@H](C)[C@@H](OC(=O)/C=C/c3ccc(O)cc3)[C@@H](O)[C@H]12`, the relative growth was inactive: 1.02.

Consider `COCC(=O)Nc1ccc2c(c1)OC[C@H](C)N(Cc1cccc(F)c1)C[C@@H](C)[C@H](OC)CN(C)C2=O`, for which the relative growth is inactive: 0.999.

For the compound `C[C@H](CO)N1C[C@H](C)[C@H](CN(C)C(=O)c2ccc3c(c2)OCO3)Oc2ncc(C#Cc3ccccc3F)cc2C1=O`, the relative growth is inactive: 1.03.

For `C[C@@H]1CN([C@H](C)CO)C(=O)Cc2cc(NC(=O)Cc3ccccc3)ccc2O[C@H]1CN(C)C(=O)Nc1ccc(C(F)(F)F)cc1`, the relative growth was inactive: 0.997.

Turning to `Cc1noc(C)c1NC(=O)Nc1ccc2c(c1)C(=O)N([C@@H](C)CO)C[C@@H](C)[C@H](CN(C)C(=O)Nc1ccc3c(c1)OCO3)OCCCC[C@H](C)O2`, the relative growth is inactive: 1.05.

For the compound `C[C@@H]1CCCCO[C@H](CN(C)Cc2ccc(C(F)(F)F)cc2)[C@@H](C)CN([C@H](C)CO)C(=O)c2cc(NC(=O)CCC(F)(F)F)ccc2O1`, the relative growth is inactive: 0.933.

With `C[C@@H]1CCCCO[C@@H](CN(C)C(=O)Nc2ccc(C(F)(F)F)cc2)[C@@H](C)CN([C@H](C)CO)C(=O)c2cc(NS(C)(=O)=O)ccc2O1`, the relative growth was inactive: 0.961.

Turning to `CC(C)NC(=O)Nc1ccc2c(c1)C(=O)N([C@@H](C)CO)C[C@H](C)[C@H](CN(C)S(=O)(=O)c1ccc(F)cc1)O2`, the relative growth is inactive: 1.02.

As to `C[C@H](CO)N1C[C@H](C)[C@@H](CN(C)C(=O)Cc2ccccc2)OCCCC[C@H](C)Oc2ccc(NC(=O)c3ccccc3)cc2C1=O`, the relative growth is inactive: 1.03.

Turning to `O=C1O[C@H](c2ccccc2)[C@H](c2ccccc2)N2[C@H]1[C@@H](C(=O)O)[C@]1(C(=O)Nc3ccc(C#CC4=CCCCC4)cc31)[C@H]2C1CCCCC1`, the relative growth was inactive: 0.896.

As to `O=C(C[C@@H]1C[C@@H]2c3cc(NS(=O)(=O)c4ccc(F)cc4)ccc3O[C@@H]2[C@H](CO)O1)NCc1cccc(F)c1`, the relative growth was inactive: 0.995.

`CN1CCN(C(=O)[C@@H]2[C@@H](CO)[C@@H]3Cn4c(ccc(-c5cncnc5)c4=O)[C@@H]3N2CC2CC2)CC1`: the relative growth is inactive: 0.98.

With `COC[C@@H]1c2nnn(C)c2CCN1S(=O)(=O)c1cn(C)cn1`, the relative growth is inactive: 0.985.

`NC(=O)c1ncn(C2OC(CO)C(O)C2O)c1O` (configuration not stated): the relative growth is inactive: 0.968.

Consider `COc1ccc(S(=O)(=O)N(C)C[C@H]2Oc3ccc(NS(C)(=O)=O)cc3CC(=O)N([C@H](C)CO)C[C@@H]2C)cc1`, for which the relative growth is inactive: 0.985.

On to `CC(C)(C)S(=O)N1Cc2cc(C(=O)NCc3ccc(Oc4ccccc4)cc3)nc(-c3cccc(C#CCC4CCCC4)c3)c2[C@@H]1CCO` (some centres not stated), for which the relative growth was inactive: 0.977.

Consider `C[C@@H]1CN([C@H](C)CO)C(=O)c2ccccc2-c2ccccc2CO[C@@H]1CN(C)C(=O)Nc1cccc(C(F)(F)F)c1`, for which the relative growth was inactive: 0.979.

Regarding `C[C@@H]1CN([C@@H](C)CO)C(=O)c2cc(NS(=O)(=O)c3cccs3)ccc2O[C@@H](C)CCCCO[C@H]1CN(C)C(=O)c1ccccc1`, the relative growth was inactive: 1.

As to `COc1ccc(CN(C)C[C@H]2OCCCC[C@@H](C)Oc3ccc(NC(=O)Nc4ccc(C(F)(F)F)cc4)cc3C(=O)N([C@H](C)CO)C[C@H]2C)cc1`, the relative growth is inactive: 1.

Take `O=C(C[C@H]1C[C@@H]2c3cc(NC(=O)C4CCOCC4)ccc3O[C@@H]2[C@H](CO)O1)NCCN1CCCCC1`: the relative growth is inactive: 0.994.

Consider `COc1cccc(NC(=O)N2C[C@@H](O)COC[C@H]3O[C@H](CC(=O)NC4Cc5ccccc5C4)CC[C@@H]32)c1`, for which the relative growth is inactive: 0.972.

As to `O=C(CCc1ccc(O)cc1)c1c(O)cc(O)cc1O[C@@H]1O[C@H](CO)[C@@H](O)[C@H](O)[C@H]1O`, the relative growth is inactive: 0.983.

On to `Cc1noc(C)c1NC(=O)N(C)C[C@H]1OCCCC[C@@H](C)Oc2ccc(NC(=O)NC3CCCCC3)cc2C(=O)N([C@@H](C)CO)C[C@H]1C`, for which the relative growth was inactive: 1.

As to `CC(=O)OC1CCC2(C)C(=CCC3C2CCC2(C)C(C(C)CCCC(C)C)CCC32)C1` (configuration not stated), the relative growth is inactive: 0.866.

On to `C[C@@H]1CN([C@H](C)CO)C(=O)c2cc(NC(=O)Cn3cnnn3)ccc2O[C@@H]1CN(C)Cc1ccc(Oc2ccccc2)cc1`, for which the relative growth was inactive: 1.01.

As to `Cc1ccsc1C=CC1=NCCCN1C.O=C(O)CC(O)(CC(=O)O)C(=O)O`, the relative growth was inactive: 0.986.

As to `Cc1ccccc1S(=O)(=O)N1C[C@H](O)COC[C@@H]2O[C@H](CC(=O)N3CCOCC3)CC[C@H]21`, the relative growth was inactive: 1.01.

As to `Cc1noc(C)c1S(=O)(=O)Nc1ccc2c(c1)C(=O)N([C@@H](C)CO)C[C@@H](C)[C@@H](CN(C)C)OCCCC[C@H](C)O2`, the relative growth was inactive: 0.994.

With `CN1C(=O)c2cc(NC(=O)Cc3cccs3)ccc2OC[C@@H]2O[C@H](CC(=O)NCCc3ccncc3)CC[C@@H]21`, the relative growth is inactive: 1.

In the case of `C[C@H](CO)N1C[C@H](C)[C@H](CN(C)C(=O)Nc2ccc(F)cc2)Oc2ccc(NC(=O)CCN3CCOCC3)cc2C1=O`, the relative growth was inactive: 0.969.

Regarding `COc1ccc(S(=O)(=O)N(C)C[C@H]2OCCCC[C@@H](C)Oc3ccc(NC(=O)Nc4cccc5ccccc45)cc3C(=O)N([C@H](C)CO)C[C@H]2C)cc1`, the relative growth is inactive: 1.04.

Regarding `CC(C)NC(=O)N(C)C[C@H]1Oc2ccc(NC(=O)CCC(F)(F)F)cc2CC(=O)N([C@H](C)CO)C[C@@H]1C`, the relative growth is inactive: 1.01.

On to `O=C(Nc1ccc(-c2nc3cc(NC(=O)c4ccccc4[N+](=O)[O-])ccc3o2)cc1)c1ccccc1[N+](=O)[O-]`, for which the relative growth is inactive: 0.984.

With `C[C@H]1CCCCO[C@@H](CN(C)C(=O)Nc2ccc(C(F)(F)F)cc2)[C@@H](C)CN([C@@H](C)CO)C(=O)c2cc(NC(=O)c3ccccc3)ccc2O1`, the relative growth was inactive: 1.02.

In the case of `O=C(C[C@@H]1CC[C@H](NS(=O)(=O)c2ccccc2F)[C@H](CO)O1)NCCCN1CCOCC1`, the relative growth is inactive: 0.967.

In the case of `C[C@@H]1CN([C@H](C)CO)S(=O)(=O)c2ccc(-c3ccncc3)cc2O[C@@H]1CN(C)C(=O)c1ccc2c(c1)OCO2`, the relative growth is inactive: 0.978.

Take `O=C(C[C@H]1CC[C@@H]2[C@H](COC[C@@H](O)CN2C(=O)c2ccccc2)O1)N1CCOCC1`: the relative growth was inactive: 0.887.

Consider `Cc1ccccc1-n1cc[nH]c1=S`, for which the relative growth was inactive: 0.968.

Turning to `COc1cccc(C#Cc2ccc3c(c2)O[C@@H](CN(C)C(C)=O)[C@H](C)CN([C@@H](C)CO)S3(=O)=O)c1`, the relative growth is inactive: 0.945.

Turning to `O=C(C[C@H]1C=C[C@H](NC(=O)c2cnccn2)[C@@H](CO)O1)NCc1ccccc1F`, the relative growth is inactive: 0.974.

Regarding `C#CCN1[C@H](/C=C/C2CC2)[C@H](CCn2cc(-c3ccc(C(=O)NO)s3)nn2)OC(=O)[C@@H]1Cc1ccccc1`, the relative growth is inactive: 1.02.

On to `C[C@@H]1CN([C@H](C)CO)C(=O)c2ccccc2-c2ccccc2CO[C@@H]1CN(C)C(=O)c1cc(Cl)cc(Cl)c1`, for which the relative growth is inactive: 1.02.

`CC(=O)N1[C@@H](CO)[C@H](c2ccccc2)C12CN(C(=O)CN1CCOCC1)C2`: the relative growth was inactive: 0.924.

With `C[C@@H]1CN([C@H](C)CO)C(=O)c2cc(NC(=O)c3ccccc3)ccc2O[C@@H](C)CCCCO[C@H]1CN(C)C(=O)Nc1ccc(F)cc1`, the relative growth is inactive: 1.01.

Turning to `N[C@H](C(=O)O)c1ccc(O)c(C(=O)O)c1`, the relative growth was inactive: 1.01.

As to `CO[C@H]1CN(C)C(=O)c2ccc(NC(C)=O)cc2OC[C@H](C)N(S(=O)(=O)c2cn(C)cn2)C[C@H]1C`, the relative growth was inactive: 0.98.

Regarding `C[C@@H]1CN([C@@H](C)CO)C(=O)c2cc(NC(=O)Nc3ccc4c(c3)OCO4)ccc2O[C@@H](C)CCCCO[C@@H]1CN(C)C(=O)c1ccccc1`, the relative growth is inactive: 1.02.

In the case of `CN(N=O)C(=O)NC1C(O)OC(CO)C(O)C1O` (configuration not stated), the relative growth is inactive: 0.677.

Consider `O=C(C[C@H]1C=C[C@H](NC(=O)c2cccc(F)c2)[C@H](CO)O1)NCCN1CCCC1`, for which the relative growth is inactive: 0.997.

Consider `OC[C@H]1O[C@H](C#Cc2ccccc2)C=C[C@@H]1O`, for which the relative growth is inactive: 0.941.

On to `c1ccc(-c2nn[nH]n2)cc1`, for which the relative growth is inactive: 0.978.

`C[C@@H]1CN([C@H](C)CO)S(=O)(=O)c2ccc(C3=CCCC3)cc2O[C@@H]1CN(C)C(=O)c1cnccn1`: the relative growth is inactive: 1.01.

Consider `CN1C[C@@H](O)COC[C@H]2O[C@@H](CC(=O)N3CCN(c4ccccc4)CC3)CC[C@@H]21`, for which the relative growth was inactive: 0.989.

For the compound `CCCNC(=O)Nc1ccc2c(c1)OC[C@H](C)N(Cc1ccc(-c3ccccn3)cc1)C[C@H](C)[C@@H](OC)CN(C)C2=O`, the relative growth is inactive: 1.

On to `O=C(CCCCCC(=O)Nc1ccccc1O)N/N=C/[C@H](O)[C@@H](O)[C@H](O)[C@H](O)CO[C@H]1O[C@H](CO)[C@H](O)[C@H](O)[C@H]1O`, for which the relative growth is inactive: 1.
